From publication PMC2654154, “Molecular Basis of Filamin A-FilGAP Interaction and Its Impairment in Congenital Disorders Associated with Filamin A Mutations” (PLoS ONE, 2009)
Numbering of substitutions follows the chain as printed. Names and notes keep the numbering of the source. No constants are given. Whether binding was seen depends on the method and setting. For part of these data: In cells and extracts the contact can be indirect. Some entries that bind do so weakly or less than the wild type. For part of these data: Where a sequence is shown, tags or fusion partners need not be part of it. One block for each molecule: values may come before it.

By UniProt entry, the sequences of proteins in these tests, tags left out. Where a name states a change or a piece, a line headed by the entry shows the natural chain unless it says otherwise. Chains listed by the source or under a name are the forms on record and can include a tag or linker. Residues count along the entry.
UniProt P21333: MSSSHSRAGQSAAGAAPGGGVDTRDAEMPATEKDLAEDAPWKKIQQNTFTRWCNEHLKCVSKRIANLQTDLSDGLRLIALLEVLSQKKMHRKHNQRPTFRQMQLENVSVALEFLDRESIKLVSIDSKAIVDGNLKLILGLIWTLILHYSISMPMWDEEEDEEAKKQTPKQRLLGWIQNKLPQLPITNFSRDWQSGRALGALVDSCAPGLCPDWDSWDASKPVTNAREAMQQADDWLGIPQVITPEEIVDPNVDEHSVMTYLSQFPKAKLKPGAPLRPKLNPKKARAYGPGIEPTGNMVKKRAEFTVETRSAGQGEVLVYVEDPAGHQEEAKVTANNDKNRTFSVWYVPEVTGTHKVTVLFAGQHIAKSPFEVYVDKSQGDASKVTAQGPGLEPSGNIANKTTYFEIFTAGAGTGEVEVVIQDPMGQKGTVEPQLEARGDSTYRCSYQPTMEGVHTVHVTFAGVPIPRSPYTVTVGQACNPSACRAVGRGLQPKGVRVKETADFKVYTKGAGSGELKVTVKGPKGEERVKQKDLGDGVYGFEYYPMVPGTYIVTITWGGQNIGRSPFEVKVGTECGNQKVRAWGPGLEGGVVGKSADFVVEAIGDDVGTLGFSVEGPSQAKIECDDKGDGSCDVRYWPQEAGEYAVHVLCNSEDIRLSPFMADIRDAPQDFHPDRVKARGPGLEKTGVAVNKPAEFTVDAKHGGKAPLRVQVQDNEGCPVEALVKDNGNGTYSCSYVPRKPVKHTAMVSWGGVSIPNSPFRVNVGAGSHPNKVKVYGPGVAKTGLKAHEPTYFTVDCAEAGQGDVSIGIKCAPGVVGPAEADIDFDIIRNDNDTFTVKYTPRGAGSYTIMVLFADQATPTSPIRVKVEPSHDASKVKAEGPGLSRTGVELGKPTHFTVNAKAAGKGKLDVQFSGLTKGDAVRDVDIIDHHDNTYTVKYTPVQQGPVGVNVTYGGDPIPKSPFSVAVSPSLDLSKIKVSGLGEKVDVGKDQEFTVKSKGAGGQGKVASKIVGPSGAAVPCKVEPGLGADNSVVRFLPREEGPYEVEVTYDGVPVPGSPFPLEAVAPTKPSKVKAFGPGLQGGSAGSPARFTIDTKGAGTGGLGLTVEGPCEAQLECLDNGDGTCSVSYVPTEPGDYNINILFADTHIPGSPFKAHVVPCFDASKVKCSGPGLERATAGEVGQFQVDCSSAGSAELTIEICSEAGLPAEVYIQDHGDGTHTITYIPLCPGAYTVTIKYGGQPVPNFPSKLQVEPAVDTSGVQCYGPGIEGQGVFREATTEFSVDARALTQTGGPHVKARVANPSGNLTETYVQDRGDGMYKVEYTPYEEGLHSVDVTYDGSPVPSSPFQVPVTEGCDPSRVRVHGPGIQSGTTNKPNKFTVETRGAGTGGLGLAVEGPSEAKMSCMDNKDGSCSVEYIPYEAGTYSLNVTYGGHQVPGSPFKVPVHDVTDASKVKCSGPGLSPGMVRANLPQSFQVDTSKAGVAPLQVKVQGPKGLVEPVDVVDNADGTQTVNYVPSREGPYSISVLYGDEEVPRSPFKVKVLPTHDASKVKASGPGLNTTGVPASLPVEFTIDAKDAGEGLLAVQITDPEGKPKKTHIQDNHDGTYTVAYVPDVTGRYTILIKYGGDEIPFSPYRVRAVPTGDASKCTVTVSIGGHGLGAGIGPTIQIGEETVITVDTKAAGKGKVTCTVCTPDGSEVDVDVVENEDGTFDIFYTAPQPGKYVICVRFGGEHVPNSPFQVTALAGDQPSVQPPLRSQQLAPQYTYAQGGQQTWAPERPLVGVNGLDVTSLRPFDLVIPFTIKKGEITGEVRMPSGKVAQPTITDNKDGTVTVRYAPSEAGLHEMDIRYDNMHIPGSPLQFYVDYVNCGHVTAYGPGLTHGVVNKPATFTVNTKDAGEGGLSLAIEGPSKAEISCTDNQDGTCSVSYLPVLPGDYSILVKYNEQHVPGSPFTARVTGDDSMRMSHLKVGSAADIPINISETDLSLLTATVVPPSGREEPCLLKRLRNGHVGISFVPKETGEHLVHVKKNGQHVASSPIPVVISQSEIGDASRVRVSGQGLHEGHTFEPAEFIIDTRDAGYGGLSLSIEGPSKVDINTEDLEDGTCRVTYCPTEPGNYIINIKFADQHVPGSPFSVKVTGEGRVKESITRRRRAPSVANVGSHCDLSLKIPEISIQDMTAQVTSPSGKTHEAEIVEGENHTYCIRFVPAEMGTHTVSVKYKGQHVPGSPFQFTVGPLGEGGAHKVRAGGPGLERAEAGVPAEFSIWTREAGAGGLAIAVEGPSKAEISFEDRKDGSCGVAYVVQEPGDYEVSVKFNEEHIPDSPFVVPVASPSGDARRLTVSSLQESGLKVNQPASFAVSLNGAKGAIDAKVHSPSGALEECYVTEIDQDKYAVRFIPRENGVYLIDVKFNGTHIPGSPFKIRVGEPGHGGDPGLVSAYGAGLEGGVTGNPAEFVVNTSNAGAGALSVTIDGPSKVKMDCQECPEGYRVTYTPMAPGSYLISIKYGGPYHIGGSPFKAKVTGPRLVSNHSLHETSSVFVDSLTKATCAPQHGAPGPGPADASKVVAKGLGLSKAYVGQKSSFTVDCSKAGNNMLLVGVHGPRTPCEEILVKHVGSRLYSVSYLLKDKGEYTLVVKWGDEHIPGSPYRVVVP
IgFLNa23 (23rd Ig repeat of FLNa): residues 2427-2522 of P21333
FLAG-FLNa Δ3 (7447del9, deletion of Y2483-V2485, disease-related) (P21333, form named): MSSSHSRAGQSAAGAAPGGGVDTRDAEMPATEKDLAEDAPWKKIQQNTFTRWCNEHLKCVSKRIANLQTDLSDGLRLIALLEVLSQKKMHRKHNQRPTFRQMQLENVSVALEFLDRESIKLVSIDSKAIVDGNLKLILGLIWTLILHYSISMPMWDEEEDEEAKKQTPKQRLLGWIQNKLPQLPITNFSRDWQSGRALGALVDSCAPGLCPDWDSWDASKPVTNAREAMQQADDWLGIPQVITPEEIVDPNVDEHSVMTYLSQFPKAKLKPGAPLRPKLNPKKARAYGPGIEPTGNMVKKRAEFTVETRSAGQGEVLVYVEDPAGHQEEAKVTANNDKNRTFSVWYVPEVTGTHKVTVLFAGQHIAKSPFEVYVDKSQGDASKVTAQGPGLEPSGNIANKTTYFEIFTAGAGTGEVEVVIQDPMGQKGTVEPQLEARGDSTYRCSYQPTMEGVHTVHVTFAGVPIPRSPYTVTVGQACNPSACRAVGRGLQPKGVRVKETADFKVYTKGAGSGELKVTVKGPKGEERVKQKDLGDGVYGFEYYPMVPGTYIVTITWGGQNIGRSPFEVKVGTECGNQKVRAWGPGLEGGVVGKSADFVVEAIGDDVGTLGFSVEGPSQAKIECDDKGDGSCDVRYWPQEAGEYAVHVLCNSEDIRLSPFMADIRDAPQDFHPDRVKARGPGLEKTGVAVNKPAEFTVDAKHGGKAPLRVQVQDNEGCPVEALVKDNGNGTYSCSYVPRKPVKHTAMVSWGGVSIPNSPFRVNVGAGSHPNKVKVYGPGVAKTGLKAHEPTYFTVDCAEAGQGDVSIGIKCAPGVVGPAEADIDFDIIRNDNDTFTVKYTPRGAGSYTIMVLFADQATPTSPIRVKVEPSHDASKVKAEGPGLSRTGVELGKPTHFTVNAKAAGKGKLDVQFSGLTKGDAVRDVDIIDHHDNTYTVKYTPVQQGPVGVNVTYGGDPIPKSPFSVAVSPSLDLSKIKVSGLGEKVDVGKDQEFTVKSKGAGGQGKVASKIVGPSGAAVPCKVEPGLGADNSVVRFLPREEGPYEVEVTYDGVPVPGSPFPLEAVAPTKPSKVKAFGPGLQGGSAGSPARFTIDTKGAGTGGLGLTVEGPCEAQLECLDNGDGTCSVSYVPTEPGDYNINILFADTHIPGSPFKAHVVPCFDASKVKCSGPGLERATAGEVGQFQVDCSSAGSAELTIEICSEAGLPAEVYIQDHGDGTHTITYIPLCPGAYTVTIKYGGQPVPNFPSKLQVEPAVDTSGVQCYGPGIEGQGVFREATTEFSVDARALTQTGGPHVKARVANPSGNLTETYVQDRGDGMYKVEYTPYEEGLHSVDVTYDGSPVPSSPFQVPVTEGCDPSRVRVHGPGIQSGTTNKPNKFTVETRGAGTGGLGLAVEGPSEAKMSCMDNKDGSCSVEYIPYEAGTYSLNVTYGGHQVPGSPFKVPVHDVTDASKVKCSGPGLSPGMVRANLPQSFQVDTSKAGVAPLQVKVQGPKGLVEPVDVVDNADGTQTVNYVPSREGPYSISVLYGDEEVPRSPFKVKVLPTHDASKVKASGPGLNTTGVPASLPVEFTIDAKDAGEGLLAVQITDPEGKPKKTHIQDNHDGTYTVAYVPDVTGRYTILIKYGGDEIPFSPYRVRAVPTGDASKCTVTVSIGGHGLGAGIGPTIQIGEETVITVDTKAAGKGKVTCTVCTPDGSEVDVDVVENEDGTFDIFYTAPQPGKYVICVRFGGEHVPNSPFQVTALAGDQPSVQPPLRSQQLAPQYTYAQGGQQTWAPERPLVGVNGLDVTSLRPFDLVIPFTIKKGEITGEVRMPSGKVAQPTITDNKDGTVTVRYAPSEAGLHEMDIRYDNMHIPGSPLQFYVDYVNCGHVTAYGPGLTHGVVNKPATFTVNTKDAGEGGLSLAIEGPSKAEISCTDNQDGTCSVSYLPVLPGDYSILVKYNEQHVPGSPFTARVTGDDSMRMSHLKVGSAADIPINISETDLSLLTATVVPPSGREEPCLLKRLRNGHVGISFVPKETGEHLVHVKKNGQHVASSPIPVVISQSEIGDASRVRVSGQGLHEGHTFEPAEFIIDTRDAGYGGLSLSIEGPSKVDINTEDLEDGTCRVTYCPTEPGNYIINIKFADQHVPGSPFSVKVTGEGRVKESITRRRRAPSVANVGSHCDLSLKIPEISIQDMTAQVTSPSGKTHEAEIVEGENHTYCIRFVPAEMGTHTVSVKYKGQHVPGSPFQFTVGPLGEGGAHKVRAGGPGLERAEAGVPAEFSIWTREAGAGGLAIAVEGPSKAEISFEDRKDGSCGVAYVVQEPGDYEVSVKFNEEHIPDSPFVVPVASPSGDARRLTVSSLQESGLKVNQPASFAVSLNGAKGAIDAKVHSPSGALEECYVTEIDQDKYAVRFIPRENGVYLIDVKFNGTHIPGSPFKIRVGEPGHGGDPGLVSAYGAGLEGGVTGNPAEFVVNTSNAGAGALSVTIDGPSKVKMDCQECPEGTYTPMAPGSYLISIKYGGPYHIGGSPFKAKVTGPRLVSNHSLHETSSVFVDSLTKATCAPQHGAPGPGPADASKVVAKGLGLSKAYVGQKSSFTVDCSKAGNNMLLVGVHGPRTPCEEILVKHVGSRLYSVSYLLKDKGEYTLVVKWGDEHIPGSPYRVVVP

Experiments:
[1] = target: T1, MBP-His-FilGAP 649–748 (human) (UniProt Q8N264); assay: pull-down; amylose resin coated with various concentrations of MBP-FilGAP 649–748; FLNa or its truncates in binding buffer, 1 h, 25°C; CBB or silver staining or immunoblot; both purified
T1 sequence: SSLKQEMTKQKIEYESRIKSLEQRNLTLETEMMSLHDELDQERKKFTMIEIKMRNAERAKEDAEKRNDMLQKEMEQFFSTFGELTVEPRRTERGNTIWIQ

[2] = target: IgFLNa23 (23rd Ig repeat of FLNa) (human) (UniProt P21333); assay: NMR titration; 15N-HSQC of 0.5 mM 13C15N-IgFLNa23 with FilGAP14 peptide added (up to 6.6-fold excess); 20 mM sodium phosphate pH 6.8, 150 mM NaCl, 25°C; both purified
[3] = target: FLAG-tagged full-length FLNa (filamin A), wild type (human) (UniProt P21333); assay: pull-down; GST-His- or MBP-His-FilGAP constructs (various concentrations) with 25 nM FLAG-FLNa on FLAG-specific mAb M2 agarose; 50 mM Tris-HCl, 150 mM NaCl, 0.1% Triton X-100, 0.1 mM EGTA, pH 7.4, 1 h, 25°C; immunoblot for GST or MBP; both purified
[4] = target: His-tag FilGAP lacking residues 649–725 (human) (UniProt Q8N264); assay: SEC; Superose 6 10/300 GL, 20 mM Tris-HCl pH 7.4, 150 mM NaCl, 0.5 mM EGTA, 4°C; size from calibration with standards; both purified
[5] = target: FLNa M2474E expressed from pREP4-FLNa in M2 cells (human) (UniProt P21333); assay: co-IP; M2 cells co-transfected with pREP4-FLNa and pCDNA5-HA-FilGAP; lysate (1% Triton X-100) precipitated with antibodies to FLNa, blot for HA
[6] = target: FLNa, wild type, expressed from pREP4-FLNa in M2 cells (human) (UniProt P21333); assay: as above
[7] = target: FLAG-FLNa Δ3 (7447del9, deletion of Y2483-V2485, disease-related) (human) (UniProt P21333); assay: pull-down; full-length FilGAP or His-FilGAP lacking 649–725 (50 nM in Figure 1C) mixed with increasing amounts of wild-type or mutant FLAG-FLNa, precipitated with FLAG-specific mAb on agarose; immunoblot for FilGAP or the His tag; both purified
FLAG-FLNa M2474E (human) [8] = target: FLAG-FLNa M2474E (human) (UniProt P21333); assay: as above
[9] = target: FLAG-FLNa Δ7 (deletion of L2439-G2445, disease-related) (human) (UniProt P21333); assay: as above
FLAG-FLNa M2474E (human) [10] = target: FLAG-FLNa M2474E (human) (UniProt P21333); assay: electron microscopy (rotary shadowing); FLNa and FilGAP mixed at 1 FLNa : 20 FilGAP for 1 h at room temperature, diluted in glycerol, sprayed onto mica; both purified
[11] = target: full-length FLNb (filamin B) (UniProt O75369); assay: co-IP; in vitro immunoprecipitation: purified FilGAP (50 nM) with increasing amounts of FLNa or FLNb, mAbs to FLNa or FLNb on GammaBind G-Sepharose, overnight, 4°C; both purified
[12] = target: MBP-His-FilGAPC32 (717–748) (human) (UniProt Q8N264); assay: SEC; Superose 6 10/300 GL, 20 mM Tris-HCl pH 7.4, 150 mM NaCl, 0.5 mM EGTA, 4°C; size from calibration with standards; both purified

- binding [1]: binds
Molecule: FLAG-tagged full-length FLNa (filamin A), wild type (from UniProt P21333 1-2647)

- binding [1]: no binding
Molecule: FLAG-FLNa M2474E (from UniProt P21333 1-2647)

- binding [2]: binds weakly
Molecule: EQFFSTFGELTVEP [FilGAP14 peptide]

- binding [3]: no binding
B1: GST-His-FilGAP 649–729 (domain or fragment, UniProt Q8N264 649-729)
chain: SSLKQEMTKQKIEYESRIKSLEQRNLTLETEMMSLHDELDQERKKFTMIEIKMRNAERAKEDAEKRNDMLQKEMEQFFSTF

- binding [4]: no binding
B2: His-tag FilGAP lacking residues 649–725 (protein, UniProt Q8N264)
chain: MEENNDSTENPQQGQGRQNAIKCGWLRKQGGFVKTWHTRWFVLKGDQLYYFKDEDETKPLGTIFLPGNKVSEHPCNEENPGKFLFEVVPGGDRDRMTANHESYLLMASTQNDMEDWVKSIRRVIWGPFGGGIFGQKLEDTVRYEKRYGNRLAPMLVEQCVDFIRQRGLKEEGLFRLPGQANLVKELQDAFDCGEKPSFDSNTDVHTVASLLKLYLRELPEPVIPYAKYEDFLSCAKLLSKEEEAGVKELAKQVKSLPVVNYNLLKYICRFLDEVQSYSGVNKMSVQNLATVFGPNILRPKVEDPLTIMEGTVVVQQLMSVMISKHDCLFPKDAELQSKPQDGVSNNNEIQKKATMGQLQNKENNNTKDSPSRQCSWDKSESPQRSSMNNGSPTALSGSKTNSPKNSVHKLDVSRSPPLMVKKNPAFNKGSGIVTNGSFSSSNAEGLEKTQTTPNGSLQARRSSSLKVSGTKMGTHSVQNGTVRMGILNSDTLGNPTNVRNMSWLPNGYVTLRDNKQKEQAGELGQHNRLSTYDNVHQQFSMMNLDDKQSIDSATWSTSSCEISLPENSNSCRSSTTTCPEQDFFGGNFEDPVLDGPPQDDLSHPRDYESKSDHRSVGGRSSRATSSSDNSETFVGNSSSNHSALHSLVFSTFGELTVEPRRTERGNTIWIQ

- binding [5]: no binding
- binding [6]: binds
B3: HA-tagged FilGAP, wild type, in M2 cells (protein, UniProt Q8N264 1-748)
chain: MEENNDSTENPQQGQGRQNAIKCGWLRKQGGFVKTWHTRWFVLKGDQLYYFKDEDETKPLGTIFLPGNKVSEHPCNEENPGKFLFEVVPGGDRDRMTANHESYLLMASTQNDMEDWVKSIRRVIWGPFGGGIFGQKLEDTVRYEKRYGNRLAPMLVEQCVDFIRQRGLKEEGLFRLPGQANLVKELQDAFDCGEKPSFDSNTDVHTVASLLKLYLRELPEPVIPYAKYEDFLSCAKLLSKEEEAGVKELAKQVKSLPVVNYNLLKYICRFLDEVQSYSGVNKMSVQNLATVFGPNILRPKVEDPLTIMEGTVVVQQLMSVMISKHDCLFPKDAELQSKPQDGVSNNNEIQKKATMGQLQNKENNNTKDSPSRQCSWDKSESPQRSSMNNGSPTALSGSKTNSPKNSVHKLDVSRSPPLMVKKNPAFNKGSGIVTNGSFSSSNAEGLEKTQTTPNGSLQARRSSSLKVSGTKMGTHSVQNGTVRMGILNSDTLGNPTNVRNMSWLPNGYVTLRDNKQKEQAGELGQHNRLSTYDNVHQQFSMMNLDDKQSIDSATWSTSSCEISLPENSNSCRSSTTTCPEQDFFGGNFEDPVLDGPPQDDLSHPRDYESKSDHRSVGGRSSRATSSSDNSETFVGNSSSNHSALHSLVSSLKQEMTKQKIEYESRIKSLEQRNLTLETEMMSLHDELDQERKKFTMIEIKMRNAERAKEDAEKRNDMLQKEMEQFFSTFGELTVEPRRTERGNTIWIQ

- binding [6]: no binding
B4: HA-tagged FilGAP V734Y, in M2 cells (protein, UniProt Q8N264 1-748)
chain: B3 chain with V734Y

- binding [7]: no binding
- binding (FLAG-FLNa M2474E (human) [8]): no binding
- binding [9]: no binding
- binding (FLAG-FLNa M2474E (human) [10]): no binding
- binding [11]: no binding (tested: 50 nM FilGAP)
B5: full-length FilGAP, purified from Sf9 insect cells (natural protein, human, UniProt Q8N264 1-748, looked up)
chain: B3 chain
notes: FilGAP, human, full length; Tag-free FilGAP was prepared from His-FilGAP with TEV protease; also called Purified FilGAP; source: Sf9 cells, purified (Ni-NTA)

- binding [3]: binds
B6: GST-His-FilGAP 649–748 (C-terminal 100 residues) (domain or fragment, human, UniProt Q8N264 649-748, looked up)
chain: T1 sequence
notes: FilGAP, human, C-terminal 100 residues; also called GST-FilGAP fragment; source: E. coli (pGEX-4T-3-HT), purified

- binding [12]: no binding
Molecule: MLQKEMEQFFSTFGELTVEPRRTERGNTIWIQ (domain or fragment, UniProt Q8N264 717-748) [MBP-His-FilGAPC32 (717–748)]
